Screen size: about 16,000 compounds; about 120 (0.75%) were called active. Inconclusive results (about 4%) are left out. Calls come from the whole dose curve; as a rule, active = well fitted inhibition curve with a large enough effect; inconclusive = small, poorly fitted or top-dose-only effect; inactive = no such curve, though single readings can be large or run the other way. This is one part of the list.
molecular target: Rap guanine nucleotide exchange factor 3 (Homo sapiens) (UniProt O95398); assay: Validation qHTS for antagonist of cAMP-regulated guanine nucleotide exchange factor 3 (EPAC1); conditions: EPAC1 Rap1B-BODIPY-GDP exchange, fluorescence; series mostly up to 150 µM; activity change, negative = inhibition: at the top concentration; note: nearly all actives have a fitted effect of over 75% in size
UniProt O95398, sequence (O95398 whole entry, looked up): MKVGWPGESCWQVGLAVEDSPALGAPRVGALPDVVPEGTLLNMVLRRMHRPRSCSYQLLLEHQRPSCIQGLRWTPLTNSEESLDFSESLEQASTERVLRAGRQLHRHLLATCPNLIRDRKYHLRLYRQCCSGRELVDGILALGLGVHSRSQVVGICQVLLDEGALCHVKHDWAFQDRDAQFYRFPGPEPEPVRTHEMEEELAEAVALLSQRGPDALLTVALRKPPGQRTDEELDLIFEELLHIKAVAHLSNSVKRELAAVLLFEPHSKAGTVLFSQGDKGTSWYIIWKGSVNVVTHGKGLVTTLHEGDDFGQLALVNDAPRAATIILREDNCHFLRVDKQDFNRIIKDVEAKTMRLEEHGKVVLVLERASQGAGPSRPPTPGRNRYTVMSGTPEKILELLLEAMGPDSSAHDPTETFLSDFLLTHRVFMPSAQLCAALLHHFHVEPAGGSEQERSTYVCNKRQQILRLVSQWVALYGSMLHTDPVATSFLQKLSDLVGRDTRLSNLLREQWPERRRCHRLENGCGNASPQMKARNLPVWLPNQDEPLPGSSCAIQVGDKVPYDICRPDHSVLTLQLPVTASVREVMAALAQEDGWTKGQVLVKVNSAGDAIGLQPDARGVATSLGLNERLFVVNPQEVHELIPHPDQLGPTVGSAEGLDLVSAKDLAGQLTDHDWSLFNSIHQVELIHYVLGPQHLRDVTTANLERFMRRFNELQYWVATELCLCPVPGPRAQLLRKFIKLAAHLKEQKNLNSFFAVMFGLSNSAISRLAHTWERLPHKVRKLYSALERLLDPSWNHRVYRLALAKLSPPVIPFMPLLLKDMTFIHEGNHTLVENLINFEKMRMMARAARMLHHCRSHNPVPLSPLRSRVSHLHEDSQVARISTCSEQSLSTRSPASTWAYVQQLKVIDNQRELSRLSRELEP
Text: Assay Provider (PI): Xiaodong Cheng Ph.D.
The University of Texas Medical Branch, […], TX
In multi-cellular eukaryotic organisms, the effects of cAMP are transduced by two ubiquitously-expressed intracellular cAMP receptors, the classic protein kinase A/cAMP-dependent protein kinase (PKA/cAPK) and the more recently discovered exchange protein directly activated by cAMP/cAMP-regulated guanine nucleotide exchange factor (EPAC/cAMP-GEF). Both PKA and EPAC are ubiquitously expressed in all tissues, and an increase in intracellular cAMP levels will lead to the activation of both PKA and EPAC. Therefore, careful dissections of the individual role and relative contribution of EPAC and PKA within the overall cAMP signaling in various model systems are critical for further elucidating the mechanism of cAMP signaling. To date no EPAC-specific antagonists and agonist, as well as isoform-specific agonists have been reported, and developing EPAC-specific pharmacological probes to determine the physiological functions that EPAC play in the overall cAMP-mediated signaling remains a major challenge within the research field. Furthermore, identified regulators of EPAC may lead to new mechanism-based therapeutic strategies specifically targeting the EPAC / cAMP-signaling components as EPAC has been implicated to play important roles in major human pathological conditions such as diabetes, heart disease, and cancer.
This qHTS will be used to screen the Molecular Libraries Small Molecule Repository (MLSMR) as a concentration-titration series using the NCGC unique quantitative screening (qHTS) platform to find activators for EPAC1. In addition, this assay will also be used as a counterscreen for the EPAC2 qHTS. This fluorescent based assay is developed and validated for EPAC1 that measures exchange using EPAC effector Rap1 complex with BODIPY-GDP, a GDP analog with a tethered fluorophores. Activators are identified by monitoring the change in fluorescence signal as the exchanged free BODIPY-GDP has a reduced fluorescence compared to Rap1-bound BODIPY-GDP. Increase in signal (activation) is the desired outcome for the EPAC1 agonist while no activity in this assay is desired for the EPAC2 agonist counterscreen.
[1] de Rooij, J., Zwartkruis, F. J., Verheijen, M. H., Cool, R. H., Nijman, S. M., Wittinghofer, A., and Bos, J.L. (1998) Nature 396, 474-477.
Briefly, three uL of reagents (100 nM EPAC1, 250 nM RAP1B-BODIPY-GDP, 50 uM GDP) were dispensed into a 1536-well Greiner black solid-bottom medium binding assay plate. Controls and test compounds (23 nL) were transferred to the plate via a Kalypsys pin tool equipped with a 1536-pin array. The plates were centrifuged at 1,000 rpm for 15 seconds followed by 5 minute incubation at room temperature. The assay plates were read at 5 minute intervals for 30 minutes in the ViewLux plate reader using 480nm excitation and 540nm emission filters. The results were normalized to the […] positive control ATA and DMSO.

Activity change, negative = inhibition, inactive:
Fc1ccc(Nc2ccnc(-c3ccoc3)n2)cc1 9.27%, O=c1c(-c2ccc(F)cc2)nc2cnc(Oc3cccc(Cl)c3)nc2n1C1CC1 20.4%, CCNc1ncc2nc(-c3ccc(Cl)cc3)c(=O)n(C)c2n1 2.22%, CC(C)CC(NC(=O)OCC1c2ccccc2-c2ccccc21)C(=O)O (configuration not stated) 0.979%, Cc1ccccc1C1(CC(=O)N2CCCCC2C)CC(=O)N(Cc2cccnc2)C1=O (configuration not stated) 12.8%, O=C(Oc1ccccc1)N1CCC2(CCCN(c3ccncc3)C2)CC1 13.9%, COc1cc(CN2CCCC(n3cc(C(=O)N4CCCC4)nn3)C2)cc(OC)c1 (configuration not stated) 10.1%, Cc1ccc(-c2ccnc(-n3ncc(C(=O)N(C)Cc4cccc5ncccc45)c3C3CC3)n2)o1 17.5%, Cc1noc(C)c1CCC(=O)N1CCOc2ccc(CN3CCN(c4ccccn4)CC3)cc2C1 11%, Clc1ccc[n+](CCCCC[n+]2cccc(Cl)c2)c1 -27.8%, NS(=O)(=O)c1cc2c(cc1Cl)NCNS2(=O)=O, CC1=C(/C=C/C(C)=C/C=C/C(C)=C/C=C/C=C(C)/C=C/C=C(C)/C=C/C(=O)[C@]2(C)CC(O)CC2(C)C)C(C)(C)CC(O)C1 (some centres not stated) -3.62%, COc1cc(/C=C/C(=O)O)ccc1O 1.31%, CS(=O)(=O)N1CCC2(CCCN(C(=O)Nc3cccc(C#N)c3)C2)CC1 23.7%, Cc1cnc(SCc2ccccn2)nc1C1CCCN(C(=O)c2ccc3c(c2)OCCO3)C1 (configuration not stated) 9.8%, C[N+]1(C)CCC(=C(c2ccccc2)c2ccccc2)CC1, COc1ccc(-c2noc(CC(=O)O)c2-c2ccc(OC)cc2)cc1 11.1%, CN(C)CCc1c[nH]c2ccc(C[C@H]3COC(=O)N3)cc12 19.5%, COc1cc2c(cc1OC)C(C(=O)c1ccc(OC)c(OC)c1O)=NCC2 7.39%, CN(C)CCC=C1c2ccccc2C=Cc2ccccc21, NC(N)=N/N=C/c1c(Cl)cccc1Cl, C#C[C@]1(O)CC[C@H]2[C@@H]3CCC4=CC(=O)CC[C@@H]4[C@H]3CC[C@@]21C 15.3%, CC(=O)N[C@@H]1C(O[C@H]2O[C@H](C(=O)O)C(O)[C@H](O)[C@H]2O)[C@H](O)[C@@H](CO)O[C@H]1O[C@@H]1C(C(=O)O)O[C@@H](O[C@H]2[C@H](O)[C@@H](CO)OC(O)[C@@H]2NC(C)=O)[C@H](O)[C@H]1O (some centres not stated) 3.27%, CC(=O)c1ccc(C(=O)N2CCCC(c3nc(SCc4ccccn4)ncc3C)C2)cc1 (configuration not stated) 6.15%, Cc1ccc(CN2CCOc3ccc(CN4CCN(CCO)CC4)cc3C2)s1 9.22%, Nc1[nH]nc2nc3ccccc3nc12 8.15%, O=C(CSc1ncccn1)NCC1Cc2cccc(-c3ncccn3)c2O1 (configuration not stated) -0.704%, O=C(O)CNC(=O)c1ccccc1 4.18%, O=C(c1csnn1)N1CCC2(CC1)CN(c1ccncc1)C2 16.1%, COc1cc2c(CCNC(C)=O)c[nH]c2cc1O -5.1% [at 75.8 µM], O=C(c1cnccn1)N1CCC2(CC1)CN(Cc1ccccc1)C2 12.9%, N#Cc1ccc(CN2CC3(CCN(C(=O)c4cnccn4)CC3)C2)cc1 2.07%, O=C1CC[C@@H](C(=O)O)N1 21.4%, O=C1CCN(CCc2ccccc2)CCN1CCSc1ccccc1 3.9%, COc1ccccc1CNc1cc(-c2ccc(C(=O)N(C)C)cc2)ncn1 4.64%, COc1ccc(-c2coc3ccc(OC4OC(COC(C)=O)C(OC(C)=O)C(OC(C)=O)C4OC(C)=O)cc3c2=O)cc1 (configuration not stated) 10.7%, CO[C@@]1(NC(=O)C(C(=O)O)c2ccc(O)cc2)C(=O)N2C(C(=O)O)=C(CSc3nnnn3C)CO[C@@H]21 (some centres not stated) 15.4% [at 75.8 µM], C=CCc1cc(OC)c(O)c(C(=O)NCCO)c1 -1.39%, Cc1ccccc1-c1cccc(CN2CCc3nnc(C(NS(C)(=O)=O)C(C)C)n3CC2)c1 (configuration not stated) 8.77%, O=c1c(O)c(-c2ccccc2)oc2ccccc12 -2.26%, CN1CCN(c2ncc3ncc(=O)n(CCC#N)c3n2)CC1 17.2%, CN(CCc1ccc(Cl)c(Cl)c1)CC(O)COc1ccc(NS(C)(=O)=O)cc1 (configuration not stated) 20.6%, CSc1ccc(-c2ccc3c(c2)CC(CNC(=O)Cn2nc(C)nc2C)O3)cc1 (configuration not stated) 11.7%, COc1cccc(-c2nc(NCc3ccccc3)c3ccccc3n2)c1 -28.5%, C[C@@]12CCC3c4ccc(OS(=O)(=O)O)cc4CCC3C1CCC2O (some centres not stated) 12.4%, O=C(NCc1nnc2n1CCN(Cc1cccc(C(F)(F)F)c1)CC2)c1ccncc1 13.5%, COc1ccc([C@@H]2CNC(=O)C2)cc1OC1CCCC1, CN(C)Cc1ccccc1-c1nc(NCc2ccccc2)c2ccccc2n1 7.84%, Cc1nc2cnc(N3CCOCC3)nc2n(C2CC2)c1=O 6.49%, Cc1noc(C)c1-c1nccc(NCc2cccnc2)n1 5.65%, CSc1nnc(CNC(=O)c2c(-c3ccccc3)noc2C)n1-c1ccc(F)cc1 5.72%, CCCCCCCCCC[n+]1ccc(/C=C/c2c[nH]c3ccccc23)cc1 80.5%

Reference: PubChem BioAssay AID1645882 (National Center for Advancing Translational Sciences (NCATS), 2021)
